The supplement of paper PMC4967469

Legend:
Test in all cases: Viability of human cancer cell lines after 72 h of drug (GDSC screen)
[1] = compound: Oc1nc(-c2ccc(C(F)(F)F)cc2)nc2c1CSCC2 [XAV 939]; conditions: top dose 5 µM; top dose inferred
Protocol: (§1)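 Human cancer cell lines in 384-well plates, medium with 10% serum, drug for 72 h over a 256-fold dose range (nine 2-fold or five 4-fold steps up to the top dose). Adherent lines were fixed and stained with the nucleic acid dye Syto60, suspension lines read with resazurin; signal relative to control wells, capped at 0 and 100%. One two-parameter sigmoid per drug and line, fitted in a mixed model over all curves with the slope shared within a line.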

[2] = compound: COc1cc(C(=O)NC2CCN(C)CC2)ccc1Nc1ncc2c(n1)N(C1CCCC1)C(C)CC(=O)N2C [NPK76-II-72-1]; conditions: top dose 10.24 µM; top dose inferred
Protocol: as §1

[3] = compound: O=C(O)c1ccc(-c2c[nH]c3ncc(-c4ccccc4)cc23)cc1C1CCCC1 [GSK-650394]; conditions: top dose 16 µM; top dose inferred
Protocol: as §1

[4] = compound: COc1cc([C@@H]2c3cc4c(cc3[C@@H](O[C@@H]3O[C@@H]5CO[C@@H](C)O[C@H]5[C@H](O)[C@H]3O)[C@H]3COC(=O)[C@H]23)OCO4)cc(OC)c1O [Etoposide]; conditions: top dose 16 µM
Protocol: as §1

[5] = compound: C=C(c1ccc(C(=O)O)cc1)c1cc2c(cc1C)C(C)(C)CCC2(C)C [Bexarotene]; conditions: top dose 8 µM
Protocol: as §1

[6] = compound: Cc1ccc2nc(NCCN)c3ncc(C)n3c2c1 [BMS-345541]; conditions: top dose 16 µM
Protocol: as §1

[7] = compound: COc1ccc(C(=O)CC2(O)C(=O)Nc3c(Cl)ccc(Cl)c32)cc1 [YK 4-279]; conditions: top dose 10 µM
Protocol: as §1

[8] = compound: NC(=O)Nc1cc(-c2cccc(F)c2)sc1C(=O)N[C@H]1CCCNC1 [AZD7762]; conditions: top dose 2 µM
Protocol: as §1

Cell Line	AUC [1]	IC50 [1] [µM]	AUC [2]	IC50 [2] [µM]	AUC [3]	IC50 [3] [µM]	AUC [4]	IC50 [4] [µM]	AUC [5]	IC50 [5] [µM]	AUC [6]	IC50 [6] [µM]	AUC [7]	IC50 [7] [µM]	AUC [8]	IC50 [8] [µM]
TT (thyroid, adherent)	0.978	> 5	0.961	> 10.2	0.953	> 16	0.978	> 16	0.98	> 8	0.941	> 16	0.955	> 10	0.654	0.396
TUR (B-cell lymphoma, suspension)	0.98	> 5	0.397	0.342	0.745	4.71	0.455	0.762	0.92	> 8	0.831	9.11	0.485	0.572	0.602	0.232
U-118-MG (glioma, adherent)	0.984	> 5	0.966	> 10.2	0.934	> 16	0.972	> 16	0.939	> 8	0.983	> 16	0.792	5.33	0.815	1.33
U-698-M (B-cell leukaemia, suspension)	0.959	> 5	0.775	4.06	0.935	> 16	0.861	13.5	0.978	> 8	0.884	> 16	0.7	2.28	0.553	0.175
UMC-11 (lung carcinoid, adherent)	0.977	> 5	0.849	6.48	0.863	11.5	0.896	> 16	0.949	> 8	0.908	> 16	0.781	3.68	0.858	1.37
VA-ES-BJ (soft tissue, adherent)	0.917	> 5	0.97	> 10.2	0.792	7.67	0.373	0.438	0.935	> 8	0.984	> 16	0.656	1.74	0.618	0.269
WM35 (melanoma, adherent)	0.985	> 5	0.778	4.18	0.954	> 16	0.717	4.14	0.941	> 8	0.851	12.4	0.697	2.24	0.706	0.477
WM278 (melanoma, adherent)	0.966	> 5	0.908	> 10.2	0.955	> 16	0.648	2.71	0.97	> 8	0.861	> 16	0.757	3.85	0.596	0.237
WM793B (melanoma, adherent)	0.95	> 5	0.956	> 10.2	0.837	12.4	0.638	2.52	0.968	> 8	0.872	> 16	0.738	3.25	0.671	0.395
WM1552C (melanoma, adherent)	0.986	> 5	0.988	> 10.2	0.705	3.79	0.856	13	0.959	> 8	0.846	11.7	0.537	0.789	0.838	1.37
YAPC (pancreas, adherent)	0.911	> 5	0.984	> 10.2	0.985	> 16	0.904	> 16	0.936	> 8	0.913	> 16	0.943	> 10	0.886	> 2
YKG-1 (glioma, adherent)	0.976	> 5	0.934	> 10.2	0.763	5.86	0.531	1.22	0.956	> 8	0.841	11.4	0.702	2.34	0.838	1.38
YT (lymphoid neoplasm, suspension)	0.986	> 5	0.904	10.1	0.854	9.78	0.857	10	0.922	> 8	0.766	5.05	0.782	3.53	0.5	0.125
huH-1 (liver, adherent)	0.952	> 5	0.984	> 10.2	0.958	> 16	0.973	> 16	0.978	> 8	0.981	> 16	0.649	1.79	0.67	0.42
no-10 (glioma, adherent)	0.934	> 5	0.982	> 10.2	0.932	> 16	0.673	3.4	0.946	> 8	0.867	> 16	0.807	6.57	0.979	> 2
no-11 (glioma, adherent)	0.976	> 5	0.972	> 10.2	0.918	> 16	0.704	4.38	0.916	> 8	0.911	> 16	0.768	4.69	0.845	> 2

A lower IC50 marks a more sensitive line; a limit (>, <) means that the fit lies beyond the doses tested. AUC is the area under the same curve over the 256-fold range up to the top dose, as a fraction: 1 means no effect, lower means more sensitive. For some of these results: Any top dose called inferred was derived from the fitted curves, not read from the paper.
